Experimental data published in PubChem BioAssay AID488969 (Vanderbilt High Throughput Screening Facility, 2010).
Over roughly 110,000 compounds, “z-score” has its median near -0.1; the highest 2% begin near 2. Some of the results follow.

These compounds were tested against Metabotropic glutamate receptor 8 (Rattus norvegicus) (UniProt P70579) (assay: mGluR8 Gi/Go-coupled signaling modulation – cell-based, rat, thallium flux, HTS, primary screen (AID 488969)). Conditions: HEK293 rat mGluR8, GIRK (G protein-gated inwardly rectifying potassium channel) thallium flux, FluoZin2; at 10 µM; stronger effect = higher value; submaximal glutamate (EC20) added with thallium.
Chain of UniProt P70579 (P70579 whole entry, looked up): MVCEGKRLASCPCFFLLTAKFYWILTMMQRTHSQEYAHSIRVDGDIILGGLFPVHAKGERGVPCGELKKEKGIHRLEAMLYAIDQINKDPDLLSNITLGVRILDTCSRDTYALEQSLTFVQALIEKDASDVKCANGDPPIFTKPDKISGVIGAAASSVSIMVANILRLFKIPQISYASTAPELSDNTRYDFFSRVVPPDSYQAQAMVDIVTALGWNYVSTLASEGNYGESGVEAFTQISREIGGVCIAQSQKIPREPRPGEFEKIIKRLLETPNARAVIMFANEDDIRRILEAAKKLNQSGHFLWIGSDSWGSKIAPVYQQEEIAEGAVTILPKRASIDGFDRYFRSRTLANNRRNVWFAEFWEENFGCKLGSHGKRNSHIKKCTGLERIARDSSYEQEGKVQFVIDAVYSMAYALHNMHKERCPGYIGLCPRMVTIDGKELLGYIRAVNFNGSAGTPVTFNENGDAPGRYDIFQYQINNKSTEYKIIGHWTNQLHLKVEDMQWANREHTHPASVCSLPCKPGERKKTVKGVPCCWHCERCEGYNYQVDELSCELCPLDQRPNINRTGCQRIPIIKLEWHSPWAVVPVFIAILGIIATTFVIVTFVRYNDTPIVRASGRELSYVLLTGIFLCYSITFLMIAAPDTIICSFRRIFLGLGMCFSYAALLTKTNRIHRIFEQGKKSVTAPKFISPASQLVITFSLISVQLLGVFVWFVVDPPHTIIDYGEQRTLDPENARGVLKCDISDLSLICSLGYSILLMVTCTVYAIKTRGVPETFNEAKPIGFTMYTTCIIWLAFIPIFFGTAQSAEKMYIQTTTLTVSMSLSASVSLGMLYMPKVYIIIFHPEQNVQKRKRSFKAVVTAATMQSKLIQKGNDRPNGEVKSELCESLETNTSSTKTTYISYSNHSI

Row | Compound | z-score
1 | CCCOc1ccc(C2/C(=C(/O)c3ccccc3)C(=O)C(=O)N2CCCN(C)C)cc1OC (stereo not given) | -0.0681
2 | CC(=O)NNc1nc(-c2ccccc2)c2cc(Br)ccc2n1 | -0.595
3 | O=C(CCNc1n[nH]c(=O)[nH]c1=O)N1CCCCC1 | 1.27
4 | CCNc1nc(OCCNC(C)=O)nc(N(C)C)n1 | 0.738
5 | C=CCSc1nc2sc3c(c2c(=O)n1CC=C)CCc1ccccc1-3 | -0.139
6 | COc1ccc(COCC(O)CN2CC(C)OC(C)C2)cc1OC (stereo not given) | 0.0549
7 | COc1cccc(N2CCN(c3ccc(S(=O)(=O)N4CCCC4)cc3)CC2)c1 | 0.351
8 | C#CCn1c(=NC(=O)c2ccc(S(=O)(=O)N3CCc4ccccc4C3)cc2)sc2cc(S(N)(=O)=O)ccc21 | -0.472
9 | COc1cc(/C=N/N=C2/NC(=O)C(c3ccccc3)S2)ccc1O (stereo not given) | 0.0338
10 | O=C(/C=C/Nc1ccc(Cc2ccc(N/C=C/C(=O)C(F)(F)F)cc2)cc1)C(F)(F)F | -0.153
11 | C=CCOC(=O)C1C(=O)CC(C)(O)C(C(=O)OCC=C)C1c1ccc(OC)cc1 (stereo not given) | 1.26
12 | Cc1ccc(C(=O)NCCN(C)C)cc1C | -0.262
13 | Cc1cc(=O)n2c3c(cccc13)CCC2 | -0.988
14 | COc1ccc(NC(=O)CSc2[nH]c(=O)cc(C)c2C#N)cc1OC | -1.12
15 | O=C(N/N=C/c1c(O)n(-c2ccc(Cl)cn2)c(=O)c2ccccc12)c1ccncc1 | -0.217
16 | CCC(=O)Oc1ccc2c(=O)c(-c3ccc4ccccc4n3)c(CC)oc2c1C | -0.165
17 | Cc1ccc(OC(=O)c2cc(=O)c3ccccc3o2)cc1 | -0.622
18 | O=C(Nc1cccnc1)c1cc(-c2cccnc2)nc2ccc(Br)cc12 | 0.00258
19 | Cc1cc(C)c(NC(=O)C2CCCN2CCC(C)C)c(C)c1 (stereo not given) | -0.354
20 | CC(C)(C)OC(=O)N1CC(O)CC1C(=O)OCC(=O)c1ccccc1 (stereo not given) | 0.509
21 | Cc1ccc(C2=N/C(=C\N3CCCCC3)C(=O)O2)cc1 | -0.0482
22 | CCC(c1nnnn1C(C)(C)C)N(Cc1ccco1)Cc1cc2cccc(C)c2[nH]c1=O (stereo not given) | 0.737
23 | Cc1ccc(S(=O)(=O)N2CCN(C(=O)CSc3ncc(C(F)(F)F)cc3Cl)CC2)cc1 | -0.176
24 | CCOC(=O)c1c(C)oc2ccc(NS(=O)(=O)c3ccc4c5c(cccc35)C(=O)N4)cc12 | 0.244
25 | CCc1cc2c(=O)n(Cc3ccco3)c(SCc3c(C)noc3C)nc2s1 | -0.0054
26 | CCCS(=O)(=O)N1CCCC(C(=O)NCCN(C)Cc2ccccc2)C1 (stereo not given) | 0.157
27 | O=C(CSCc1ccccc1Cl)NN=C1CCCCCC1 | -0.419
28 | COc1ccc2c(c1)-c1nc(/N=C/c3c(O)ccc4ccccc34)sc1CC2 | -0.109

Row | Compound | z-score
29 | COc1cccc(-c2nc(Oc3cc(C)cc(C)c3)c3ccccc3n2)c1O | 0.123
30 | COc1cc2c(cc1NC(=O)CSc1nnc(Cc3cccs3)n1Cc1ccco1)oc1ccccc12 | 0.111
31 | O=C(Cc1csc(-c2ccccc2)n1)Nc1ccc(C(F)(F)F)cc1 | -0.124
32 | O=C(CSc1nc(-c2ccco2)cc(C(F)(F)F)n1)N1CCN(c2cccc(Cl)c2)CC1 | -0.266
33 | CCOC(=O)N1CCN(C(=O)c2cnn3ccccc23)CC1 | 1.04
34 | CCOC(=O)N1CCN(C(=O)CSCC(=O)Nc2nc(-c3ccc(-c4ccccc4)cc3)cs2)CC1 | 0.857
35 | O=C(COc1ccccc1)OCc1csc(Nc2ccccc2)n1 | -0.693
36 | O=C(O)c1cc(-c2ccc(/C=N/Nc3ccc(Cl)cc3)o2)ccc1Cl | -0.411
37 | CCOC(=O)C1=NN(C(C)=O)C2(CC(=O)N(c3ccc(C)c(C)c3)C2=O)C1 (stereo not given) | -0.283
38 | O=C(CCCC(=O)N(CC(=O)NC1CCCC1)C1CCCC1)Nc1ccccn1 | -0.645
39 | CN(C(=O)COc1cc(=O)n(C)c2ccccc12)c1cccc(Cl)c1 | 0.0211
40 | COC(=O)NC1(C(F)(F)F)NC(=O)N(C2CCCCC2)C1=O (stereo not given) | 0.322
41 | Cc1nc(NCc2ccco2)[nH]c(=O)c1CCC(C)C | -1.06
42 | CCC(CO)Nc1ncnc2c1cnn2-c1ccc(Cl)cc1 (stereo not given) | -0.11
43 | c1ccc2c(c1)CCN(CCCNc1nc3ccccc3n3cnnc13)C2 | -0.0711
44 | CCc1nc(NCC2CCCN2CC)c2nnn(Cc3ccccc3F)c2n1 (stereo not given) | -0.244
45 | CCSc1nc(-c2ccc(OC)cc2)cc(-c2ccccc2)c1C#N | -0.152
46 | Cn1c(CN2CCN(c3cccc(Cl)c3)CC2)nc2ccccc21 | 0.249
47 | C=CCn1c(SCCC)nc(O)cc1=O | -0.404
48 | Cc1cccc(C2CC(c3ccc(Cl)cc3)Nc3nc(N)nn32)c1 (stereo not given) | 1.02
49 | O=C(CCCn1c(=O)[nH]c2cc(Cl)ccc2c1=O)NCCCN1CCCC1 | -0.393
50 | O=[N+]([O-])c1ccc(N2CCN(c3ccc(Cl)nn3)CC2)cc1NC1CC1 | 1.09
51 | Nc1ncc(-c2nnnn2-c2ccc(Cl)cc2)c(-c2ccc(Cl)cc2)n1 | -0.0921
52 | Cc1nc2c3ccccc3nc(NNC(=O)CCC(=O)NCCC(C)C)n2n1 | -0.402
53 | Cc1cc(-c2n[nH]c(=S)n2/N=C/c2sccc2C)n[nH]1 | -0.362
54 | O=C(CSCc1ccc(F)cc1)N1CCN(c2ccc(F)cc2)CC1 | -0.0878
55 | C/C(=N/NC(=O)c1cccs1)c1cccc(NC(=O)C2CC2)c1 | -0.143
